Results on two molecules are retold here after PMC10185812.

Holding throughout (experiment): co-IP; ARPE-19 transiently co-transfected with tagged C21ORF2 (GFP or 3xHA) and 3xFLAG-NEK1 (full length, truncated or mutated); immunoprecipitation with anti-FLAG antibodies; washes with 500 mM NaCl, 1% Triton X-100; immunoblotting
In assay [1] the target is T1, 3xFLAG-NEK1 379-760 (human) (UniProt Q96PY6).
T1 sequence: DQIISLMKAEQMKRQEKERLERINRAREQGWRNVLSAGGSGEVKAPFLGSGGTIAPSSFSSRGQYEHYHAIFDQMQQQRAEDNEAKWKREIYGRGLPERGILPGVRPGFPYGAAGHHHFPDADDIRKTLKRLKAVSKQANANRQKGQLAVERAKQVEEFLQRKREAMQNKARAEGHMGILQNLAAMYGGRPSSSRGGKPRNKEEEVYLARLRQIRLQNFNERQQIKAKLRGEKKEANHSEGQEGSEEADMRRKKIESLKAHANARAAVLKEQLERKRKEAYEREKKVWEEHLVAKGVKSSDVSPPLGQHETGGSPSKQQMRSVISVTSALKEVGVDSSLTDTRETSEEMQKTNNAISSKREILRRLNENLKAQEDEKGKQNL

The target in assay [2] is T2, 3xFLAG-NEK1 1-379 (human) (UniProt Q96PY6).
T2 sequence: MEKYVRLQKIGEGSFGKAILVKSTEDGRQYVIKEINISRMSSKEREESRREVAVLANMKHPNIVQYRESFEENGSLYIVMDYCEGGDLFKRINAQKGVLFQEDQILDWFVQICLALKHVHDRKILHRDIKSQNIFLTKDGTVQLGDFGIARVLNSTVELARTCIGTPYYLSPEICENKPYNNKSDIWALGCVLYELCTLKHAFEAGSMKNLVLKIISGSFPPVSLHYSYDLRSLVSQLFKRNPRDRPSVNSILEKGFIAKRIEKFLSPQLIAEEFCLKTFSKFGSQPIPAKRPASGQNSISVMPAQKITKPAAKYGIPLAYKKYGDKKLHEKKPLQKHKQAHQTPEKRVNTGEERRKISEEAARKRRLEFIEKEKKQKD

The target of assay [3] is T3, 3xFLAG-NEK1 D146A (KD) (human) (UniProt Q96PY6).
T3 sequence: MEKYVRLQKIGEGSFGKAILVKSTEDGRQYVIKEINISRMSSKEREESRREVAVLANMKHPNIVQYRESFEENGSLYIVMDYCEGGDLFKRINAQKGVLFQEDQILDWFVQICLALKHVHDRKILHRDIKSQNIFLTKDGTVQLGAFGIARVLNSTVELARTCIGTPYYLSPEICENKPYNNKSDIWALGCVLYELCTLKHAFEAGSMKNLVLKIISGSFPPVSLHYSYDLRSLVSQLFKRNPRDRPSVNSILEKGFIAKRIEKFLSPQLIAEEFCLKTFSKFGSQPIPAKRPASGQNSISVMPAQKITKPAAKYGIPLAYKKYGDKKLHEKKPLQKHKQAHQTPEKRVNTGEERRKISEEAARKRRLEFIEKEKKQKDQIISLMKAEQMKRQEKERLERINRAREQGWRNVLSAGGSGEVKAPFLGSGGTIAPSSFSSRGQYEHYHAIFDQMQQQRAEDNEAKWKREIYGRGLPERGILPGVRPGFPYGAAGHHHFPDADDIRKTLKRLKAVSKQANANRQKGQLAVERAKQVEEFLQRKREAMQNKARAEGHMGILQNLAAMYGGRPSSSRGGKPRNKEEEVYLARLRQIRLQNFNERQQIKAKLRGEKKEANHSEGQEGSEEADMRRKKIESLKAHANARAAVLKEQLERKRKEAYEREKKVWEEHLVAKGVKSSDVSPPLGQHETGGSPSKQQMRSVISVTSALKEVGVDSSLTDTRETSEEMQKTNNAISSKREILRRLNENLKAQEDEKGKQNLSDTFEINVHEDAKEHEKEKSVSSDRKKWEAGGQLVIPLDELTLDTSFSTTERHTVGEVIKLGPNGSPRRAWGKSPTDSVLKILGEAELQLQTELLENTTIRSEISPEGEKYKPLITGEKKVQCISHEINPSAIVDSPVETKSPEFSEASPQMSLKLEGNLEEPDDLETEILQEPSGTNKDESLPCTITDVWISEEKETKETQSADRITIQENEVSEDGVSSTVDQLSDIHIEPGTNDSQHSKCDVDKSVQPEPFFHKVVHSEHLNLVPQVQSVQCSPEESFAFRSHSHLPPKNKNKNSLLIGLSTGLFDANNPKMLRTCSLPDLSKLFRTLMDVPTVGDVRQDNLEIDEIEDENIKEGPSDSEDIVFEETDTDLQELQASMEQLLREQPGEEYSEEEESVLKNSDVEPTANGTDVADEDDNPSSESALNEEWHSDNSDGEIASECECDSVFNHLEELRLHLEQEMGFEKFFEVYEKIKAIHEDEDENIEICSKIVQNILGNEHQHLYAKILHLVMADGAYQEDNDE

Results are given in words; binding and its absence hold for the method and conditions named. Binding seen in cells or lysates may run through a third protein. Some results given as binding are weak or reduced against the parent protein; the word gives no strength. Tags and fused reporters may be left off the sequences shown.

B1: GFP-C21ORF2 (protein, UniProt O43822-1 1-256)
chain: MKLTRKMVLTRAKASELHSVRKLNCWGSRLTDISICQEMPSLEVITLSVNSISTLEPVSRCQRLSELYLRRNRIPSLAELFYLKGLPRLRVLWLAENPCCGTSPHRYRMTVLRTLPRLQKLDNQAVTEEELSRALSEGEEITAAPEREGTGHGGPKLCCTLSSLSSAAETGRDPLDSEEEATSGAQDERGLKPPSRGQFPSLSARDASSSHRGRNVLTAILLLLRELDAEGLEAVQQTVGSRLQALRGEEVQEHAE
For the molecule B1, the binding entry in assay [1] and in assay [2] was “no binding” throughout.

B2: 3xHA-C21ORF2 (protein, UniProt O43822-1 1-256)
chain: MKLTRKMVLTRAKASELHSVRKLNCWGSRLTDISICQEMPSLEVITLSVNSISTLEPVSRCQRLSELYLRRNRIPSLAELFYLKGLPRLRVLWLAENPCCGTSPHRYRMTVLRTLPRLQKLDNQAVTEEELSRALSEGEEITAAPEREGTGHGGPKLCCTLSSLSSAAETGRDPLDSEEEATSGAQDERGLKPPSRGQFPSLSARDASSSHRGRNVLTAILLLLRELDAEGLEAVQQTVGSRLQALRGEEVQEHAE
Turning to B2, the binding result in assay [3] is “binds”.
